27 compounds from the supplement of paper PMC12355420 can be followed below.

Counter-ions that a name gives are not always drawn. This is one part of the list. Many values rest on one well or one pass, so single values are uncertain.
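Also: primary screen of an FDA-approved drug library in HeLa reporter cells in 96-well format, CellMask signal normalized to DMSO-treated wells set as 1, under 0.5 deemed highly cytotoxic.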

This experiment relates to HeLa VPS33A reporter cells. In words: relative cell viability (CellMask signal) vs DMSO (fraction of DMSO); HeLa model of a glycosaminoglycan (GAG) storage disease; KI is knock-in and KO knock-out; SDC1 is syndecan 1; higher = less cytotoxic. To be noted: 50 µM; 24 h.
With `COc1cc2ncnc(Nc3ccc(F)c(Cl)c3)c2cc1OCCCN1CCOCC1` [Gefitinib hydrochloride], the relative cell viability was found to be 0.00808. The value for `COc1cc2nc(N3CCN(C(=O)C4COc5ccccc5O4)CC3)nc(N)c2cc1OC` (configuration not stated) [Doxazosin Mesylate] was 0.0045; that for `N#CC[C@H](C1CCCC1)n1cc(-c2ncnc3[nH]ccc23)cn1` was 0.0178. As to `CC(=O)OC[C@H]1O[C@@H]([S-])[C@H](OC(C)=O)[C@@H](OC(C)=O)[C@@H]1OC(C)=O.CCP(CC)CC.[Au+]` [Auranofin], the relative cell viability is 0.00366.

For `CC[C@H](CO)Nc1nc(NCc2ccccc2)c2ncn(C(C)C)c2n1` [Roscovitine (Seliciclib,CYC202)], the relative cell viability came out at 0.0173.

With `CN(C/C=C/C#CC(C)(C)C)Cc1cccc2ccccc12` [Terbinafine], the relative cell viability worked out at 0.343. As to `Cc1c(O)cccc1C(=O)N[C@@H](CSc1ccccc1)[C@H](O)CN1C[C@H]2CCCC[C@H]2C[C@H]1C(=O)NC(C)(C)C` [Nelfinavir Mesylate], the relative cell viability came out at 0.0196. With `CC[C@@H]1C(=O)N(C)c2cnc(Nc3ccc(C(=O)N[C@H]4CC[C@H](N5CCN(CC6CC6)CC5)CC4)cc3OC)nc2N1C(C)C` [BI6727 (Volasertib)], the relative cell viability came out at 0.00571. On to `Fc1ccc(C(c2ccc(F)cc2)N2CCN(C/C=C/c3ccccc3)CC2)cc1` [Flunarizine 2HCl], for which the relative cell viability was determined as 0.0452. As for `COc1cc(NC(C)CCCN)c2ncccc2c1` (configuration not stated) [Primaquine Diphosphate], the relative cell viability was found to be 0.00577. Regarding `C[C@@H](O[C@H]1OCCN(Cc2nn(P(=O)(O)O)c(=O)[nH]2)[C@H]1c1ccc(F)cc1)c1cc(C(F)(F)F)cc(C(F)(F)F)c1` [Fosaprepitant dimeglumine salt], the relative cell viability worked out at 0.00413. Regarding `COc1cc(/C=C/C(=O)CC(=O)/C=C/c2ccc(O)c(OC)c2)ccc1O` [Curcumin], the relative cell viability was 0.0044. The value for `CCc1cnn2c(NCc3ccc[n+]([O-])c3)cc(N3CCCC[C@H]3CCO)nc12` was 0.0171. The compound `O=C(Nc1ccccc1)OCC(CN1CCCCC1)OC(=O)Nc1ccccc1` (configuration not stated) [Diperodon HCl] returned a relative cell viability of 0.116.

Consider `COc1cccc2c1C(=O)c1c(O)c3c(c(O)c1C2=O)C[C@@](O)(C(=O)CO)C[C@@H]3O[C@H]1C[C@H](N)[C@H](O[C@@H]2CCCCO2)[C@H](C)O1` [Pirarubicin], for which the relative cell viability was determined as 0.0208.

The compound `CO[C@@]12[C@H](COC(N)=O)C3=C(C(=O)C(C)=C(N)C3=O)N1C[C@@H]1N[C@@H]12` [Mitomycin C] showed a relative cell viability of 0.00479. In the case of `CC(C)(C)NC(=O)[C@@H]1C[C@@H]2CCCC[C@@H]2CN1C[C@@H](O)[C@H](Cc1ccccc1)NC(=O)[C@H](CC(N)=O)NC(=O)c1ccc2ccccc2n1` [Saquinavir mesylate] it was 0.00371; in that of `CNCCC=C1c2ccccc2CCc2ccccc21` [Nortriptyline (hydrochloride)], 0.00961; in that of `C[C@@H](NCCCc1cccc(C(F)(F)F)c1)c1cccc2ccccc12` [Cinacalcet HCl], 0.0138. As to `CC(C)C[C@H](NC(=O)[C@H](Cc1ccccc1)NC(=O)c1cnccn1)B(O)O` [Bortezomib (PS-341)], the relative cell viability was determined as 0.0604.

On to `Clc1ccc2c(c1)C(N1CCNCC1)=Nc1ccccc1O2` [Amoxapine], for which the relative cell viability stood at 0.0084. In the case of `C#CCN(C)CCCOc1ccc(Cl)cc1Cl` [Clorgyline (hydrochloride)] it was 0.00627. The value for `C[C@@H](O[C@H]1OCCN(Cc2n[nH]c(=O)[nH]2)[C@H]1c1ccc(F)cc1)c1cc(C(F)(F)F)cc(C(F)(F)F)c1` [Aprepitant] was 0.0337.

For the compound `CC1(C)CCC(c2ccc(Cl)cc2)=C(CN2CCN(c3ccc(C(=O)NS(=O)(=O)c4ccc(N[C@H](CCN5CCOCC5)CSc5ccccc5)c(S(=O)(=O)C(F)(F)F)c4)cc3)CC2)C1` [ABT-263 (Navitoclax)], the relative cell viability was 0.00408. Turning to `C[n+]1cc2c3c(ccc2c2ccc4cc5c(cc4c21)OCO5)OCO3` [Sanguinarine chloride], the relative cell viability amounted to 0.00586. As to `Cc1c2oc3c(C)ccc(C(=O)N[C@@H]4C(=O)N[C@H](C(C)C)C(=O)N5CCC[C@H]5C(=O)N(C)CC(=O)N(C)[C@@H](C(C)C)C(=O)O[C@@H]4C)c3nc-2c(C(=O)N[C@@H]2C(=O)N[C@H](C(C)C)C(=O)N3CCC[C@H]3C(=O)N(C)CC(=O)N(C)[C@@H](C(C)C)C(=O)O[C@@H]2C)c(N)c1=O` [Actinomycin D], the relative cell viability turned out to be 0.0113.

As for `CO/N=C1\C[C@]2(C[C@@H]3C[C@@H](C/C=C(\C)C[C@@H](C)/C=C/C=C4\CO[C@@H]5[C@H](O)C(C)=C[C@@H](C(=O)O3)[C@]45O)O2)O[C@H](/C(C)=C/C(C)C)[C@H]1C` [Moxidectin], the relative cell viability is 0.00468.
